What is called ΔTm is the shift of the melting midpoint relative to a reference.

The values that follow come from patent publication US20220331267A1, “METHODS AND COMPOSITIONS FOR TREATMENT OF DEMYELINATING DISORDERS” (Rush University Medical Center, priority 2019, published 2022).

In the assay the target is T1, PPARβ (Mus musculus, UniProt P35396).
T1 sequence (P35396 1-440): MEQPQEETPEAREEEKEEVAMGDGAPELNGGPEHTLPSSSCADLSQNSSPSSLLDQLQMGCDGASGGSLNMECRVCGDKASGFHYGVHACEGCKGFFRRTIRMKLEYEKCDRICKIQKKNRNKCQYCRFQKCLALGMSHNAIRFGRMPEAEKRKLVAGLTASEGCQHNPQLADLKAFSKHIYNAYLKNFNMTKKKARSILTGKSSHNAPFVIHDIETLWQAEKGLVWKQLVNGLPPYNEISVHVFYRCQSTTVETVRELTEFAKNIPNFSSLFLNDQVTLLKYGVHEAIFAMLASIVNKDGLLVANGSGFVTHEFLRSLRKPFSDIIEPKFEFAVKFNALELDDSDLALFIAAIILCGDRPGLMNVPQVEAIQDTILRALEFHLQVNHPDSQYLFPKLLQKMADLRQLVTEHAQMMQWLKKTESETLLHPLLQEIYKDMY
Conditions: melting temperature shift of PPARβ protein, Table 3 screen.

SMILES strings stand for the structures.

As to `CC(C)(C)c1cc(C(C)(C)C)c(O)c(C(C)(C)C)c1` [2,4,6 TB Phenol, 2,4,6-Tri-ter-butyl Phenol], the shift in melting temperature (ΔTm) worked out at 0.44 °C.

As to `Cc1cc(O)ccc1C(C)C` [4-I, 5-M Phenol], the shift in melting temperature (ΔTm) was 0.15 °C.
